The labels stand for the following.
B1: UUCAUCA (DNA:RNA)
RNA: GGGAGACCGGAAUUCAGAUUGUCCUUCAUCAUUAAAUCCCGUCGUAGCCACCA
DNA 1: CAATCTGAATTCCGGTCTCCC
DNA 2: TGGTGGCTACGACGGGATT
B2: GCCCUAG (DNA:RNA)
RNA: B1 RNA with U25G, U26C, A28C, C30A, A31G
DNA 1: CAATCTGAATTCCGGTCTCCC
DNA 2: TGGTGGCTACGACGGGATT
B3: UAGCUUU (DNA:RNA)
RNA: B1 RNA with U26A, C27G, A28C, C30U, A31U
DNA 1: CAATCTGAATTCCGGTCTCCC
DNA 2: TGGTGGCTACGACGGGATT
B4: GACGUAU (DNA:RNA)
RNA: B1 RNA with U25G, U26A, A28G, C30A, A31U
DNA 1: CAATCTGAATTCCGGTCTCCC
DNA 2: TGGTGGCTACGACGGGATT
B5: AUCGCUU (DNA:RNA)
RNA: B1 RNA with U25A, A28G, U29C, C30U, A31U
DNA 1: CAATCTGAATTCCGGTCTCCC
DNA 2: TGGTGGCTACGACGGGATT
B6: GUCACGC (DNA:RNA)
RNA: B1 RNA with U25G, U29C, C30G, A31C
DNA 1: CAATCTGAATTCCGGTCTCCC
DNA 2: TGGTGGCTACGACGGGATT
B7: ACUGCGC (DNA:RNA)
RNA: GGGAGACCGGAAUUCAGAUUGUCCACUGCGCUUAAAUCCCGUCGUAGCCACCA
DNA 1: CAATCTGAATTCCGGTCTCCC
DNA 2: TGGTGGCTACGACGGGATT
B8: ACGUGUU (DNA:RNA)
RNA: B7 RNA with U27G, G28U, C29G, G30U, C31U
DNA 1: CAATCTGAATTCCGGTCTCCC
DNA 2: TGGTGGCTACGACGGGATT
B9: UUCUAAG (DNA:RNA)
RNA: B1 RNA with A28U, U29A, C30A, A31G
DNA 1: CAATCTGAATTCCGGTCTCCC
DNA 2: TGGTGGCTACGACGGGATT
B10: UACCGUA (DNA:RNA)
RNA: B1 RNA with U26A, A28C, U29G, C30U
DNA 1: CAATCTGAATTCCGGTCTCCC
DNA 2: TGGTGGCTACGACGGGATT
B11: AAGAGAG (DNA:RNA)
RNA: B7 RNA with C26A, U27G, G28A, C29G, G30A, C31G
DNA 1: CAATCTGAATTCCGGTCTCCC
DNA 2: TGGTGGCTACGACGGGATT
B12: UGGGCGU (DNA:RNA)
RNA: B7 RNA with A25U, C26G, U27G, C31U
DNA 1: CAATCTGAATTCCGGTCTCCC
DNA 2: TGGTGGCTACGACGGGATT
B13: UUCUACA (DNA:RNA)
RNA: B1 RNA with A28U, U29A
DNA 1: CAATCTGAATTCCGGTCTCCC
DNA 2: TGGTGGCTACGACGGGATT
B14: UGCUAGU (DNA:RNA)
RNA: B1 RNA with U26G, A28U, U29A, C30G, A31U
DNA 1: CAATCTGAATTCCGGTCTCCC
DNA 2: TGGTGGCTACGACGGGATT
B15: CCUAAUC (DNA:RNA)
RNA: B7 RNA with A25C, G28A, C29A, G30U
DNA 1: CAATCTGAATTCCGGTCTCCC
DNA 2: TGGTGGCTACGACGGGATT
B16: UUCGAGG (DNA:RNA)
RNA: B1 RNA with A28G, U29A, C30G, A31G
DNA 1: CAATCTGAATTCCGGTCTCCC
DNA 2: TGGTGGCTACGACGGGATT
B17: GAAUGUG (DNA:RNA)
RNA: GGGAGACCGGAAUUCAGAUUGUCCGAAUGUGUUAAAUCCCGUCGUAGCCACCA
DNA 1: CAATCTGAATTCCGGTCTCCC
DNA 2: TGGTGGCTACGACGGGATT
B18: AAUGCUG (DNA:RNA)
RNA: B7 RNA with C26A, G30U, C31G
DNA 1: CAATCTGAATTCCGGTCTCCC
DNA 2: TGGTGGCTACGACGGGATT
B19: UCAGCCG (DNA:RNA)
RNA: B7 RNA with A25U, U27A, G30C, C31G
DNA 1: CAATCTGAATTCCGGTCTCCC
DNA 2: TGGTGGCTACGACGGGATT
B20: GGGAUCC (DNA:RNA)
RNA: B1 RNA with U25G, U26G, C27G, A31C
DNA 1: CAATCTGAATTCCGGTCTCCC
DNA 2: TGGTGGCTACGACGGGATT
B21: AGUUCGA (DNA:RNA)
RNA: B7 RNA with C26G, G28U, C31A
DNA 1: CAATCTGAATTCCGGTCTCCC
DNA 2: TGGTGGCTACGACGGGATT
B22: GUGCAGC (DNA:RNA)
RNA: B7 RNA with A25G, C26U, U27G, G28C, C29A
DNA 1: CAATCTGAATTCCGGTCTCCC
DNA 2: TGGTGGCTACGACGGGATT
B23: AGAUUAU (DNA:RNA)
RNA: B17 RNA with G25A, A26G, G29U, U30A, G31U
DNA 1: CAATCTGAATTCCGGTCTCCC
DNA 2: TGGTGGCTACGACGGGATT
B24: CGCACAG (DNA:RNA)
RNA: B1 RNA with U25C, U26G, U29C, C30A, A31G
DNA 1: CAATCTGAATTCCGGTCTCCC
DNA 2: TGGTGGCTACGACGGGATT
B25: UUGAAAU (DNA:RNA)
RNA: B1 RNA with C27G, U29A, C30A, A31U
DNA 1: CAATCTGAATTCCGGTCTCCC
DNA 2: TGGTGGCTACGACGGGATT
B26: GUUCCCG (DNA:RNA)
RNA: B7 RNA with A25G, C26U, G28C, G30C, C31G
DNA 1: CAATCTGAATTCCGGTCTCCC
DNA 2: TGGTGGCTACGACGGGATT
B27: UGCGUCG (DNA:RNA)
RNA: B1 RNA with U26G, A28G, A31G
DNA 1: CAATCTGAATTCCGGTCTCCC
DNA 2: TGGTGGCTACGACGGGATT
B28: ACGAGCU (DNA:RNA)
RNA: B7 RNA with U27G, G28A, C29G, G30C, C31U
DNA 1: CAATCTGAATTCCGGTCTCCC
DNA 2: TGGTGGCTACGACGGGATT
B29: GAUAAAC (DNA:RNA)
RNA: B7 RNA with A25G, C26A, G28A, C29A, G30A
DNA 1: CAATCTGAATTCCGGTCTCCC
DNA 2: TGGTGGCTACGACGGGATT
B30: GUAAAAA (DNA:RNA)
RNA: B1 RNA with U25G, C27A, U29A, C30A
DNA 1: CAATCTGAATTCCGGTCTCCC
DNA 2: TGGTGGCTACGACGGGATT
B31: AUCCAAA (DNA:RNA)
RNA: B1 RNA with U25A, A28C, U29A, C30A
DNA 1: CAATCTGAATTCCGGTCTCCC
DNA 2: TGGTGGCTACGACGGGATT

From publication PMC9911399, “Two distinct binding modes provide the RNA-binding protein RbFox with extraordinary sequence specificity” come the findings set out here.

Positions count from the first letter of the chain named. The list shows a part of the results.

For this assay, the target named is T1, RBFOX1 RRM RbFoxmut (Fox-RRM*) (Homo sapiens, UniProt Q9NWB1 109-208, R118D;E147R;N151S;E152T).
T1 sequence: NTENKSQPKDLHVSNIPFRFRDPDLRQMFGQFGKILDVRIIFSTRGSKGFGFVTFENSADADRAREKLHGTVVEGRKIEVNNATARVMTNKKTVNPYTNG
As to the kind of experiment: EMSA; HiTS-Eq, 1 nM pool, 10 min; buffer printed only for the single-RNA assays: 10 mM Tris pH 7.5, 150 mM NaCl, 3.4 mM EDTA, 0.001% NP-40, 30 C. Conditions: tags: His6 N-terminal (pET28a); label: 5' 32P. The gist of the method: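 Relative association constants, normalised to the cognate motif, were derived by comparing read counts of each RNA species with those of the control reaction. The RNA sequenced was the free fraction, separated by 8% native PAGE after a 10 min equilibration in 50 µL of 1 nM 5′-radiolabelled RNA (7 randomized nucleotides) with increasing concentrations of purified wild-type or mutant RbFox RRM.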
In general terms: In EMSA bound probe runs differently from free probe, usually more slowly.
Consider B1, for which the binding signal was 0.0906 KA relative to UGCAUGU.

B2: the binding signal is 0.0894 KA relative to UGCAUGU.

Regarding B3, the binding signal was 0.0889 KA relative to UGCAUGU.

With B4, the binding signal was 0.118 KA relative to UGCAUGU.

For the molecule B5, the binding signal is 0.101 KA relative to UGCAUGU.

B6: the binding signal was 0.0858 KA relative to UGCAUGU.

As to B7, the binding signal was 0.126 KA relative to UGCAUGU.

B8: the binding signal was 0.132 KA relative to UGCAUGU.

Consider B9, for which the binding signal was 0.128 KA relative to UGCAUGU.

For B10, the binding signal was 0.127 KA relative to UGCAUGU.

As for B11, the binding signal is 0.0924 KA relative to UGCAUGU.

Regarding B12, the binding signal was 0.182 KA relative to UGCAUGU.

As for B13, the binding signal is 0.0886 KA relative to UGCAUGU.

Consider B14, for which the binding signal is 0.14 KA relative to UGCAUGU.

Consider B15, for which the binding signal is 0.0597 KA relative to UGCAUGU.

Consider B16, for which the binding signal is 0.077 KA relative to UGCAUGU.

As for B17, the binding signal is 1.27 KA relative to UGCAUGU.

Regarding B18, the binding signal was 0.101 KA relative to UGCAUGU.

For the molecule B19, the binding signal is 0.112 KA relative to UGCAUGU.

For the molecule B20, the binding signal is 0.154 KA relative to UGCAUGU.

Consider B21, for which the binding signal is 0.118 KA relative to UGCAUGU.

As for B22, the binding signal is 0.0878 KA relative to UGCAUGU.

With B23, the binding signal is 0.124 KA relative to UGCAUGU.

Regarding B24, the binding signal was 0.0801 KA relative to UGCAUGU.

Regarding B25, the binding signal was 0.0963 KA relative to UGCAUGU.

On to B26, for which the binding signal was 0.0669 KA relative to UGCAUGU.

As for B27, the binding signal is 0.191 KA relative to UGCAUGU.

As for B28, the binding signal was 0.0896 KA relative to UGCAUGU.

In the case of B29, the binding signal was 0.0531 KA relative to UGCAUGU.

Consider B30, for which the binding signal was 0.11 KA relative to UGCAUGU.

Turning to B31, the binding signal is 0.122 KA relative to UGCAUGU.
